“And” between values parts separate entries of the source, which are not always exact repeats. Equal values may be shown once. The campaign covered roughly 360,000 compounds. About 25,000 (6.9%) were called active. The shares of active, inactive and inconclusive entries below differ from those in the screen. The call rests on the fitted dose curve; in most records, active means well fitted inhibition curve with a large enough effect; inconclusive means small, poorly fitted or top-dose-only effect; inactive means flat fitted curve, though single readings scatter. Where the call is inconclusive, the potency comes from a doubtful curve fit.
target: Luciferin 4-monooxygenase (Photinus pyralis) (UniProt P08659); test: qHTS profiling assay for firefly luciferase inhibitor/activator using purifed enzyme and Km concentrations of substrates (counterscreen for miR-21 project); details: purified FLuc, luminescence inhibition; series mostly up to 57.5 µM; further: nearly all actives have a fitted effect of over 55% in size
Sequence of UniProt P08659 (P08659 whole entry, looked up): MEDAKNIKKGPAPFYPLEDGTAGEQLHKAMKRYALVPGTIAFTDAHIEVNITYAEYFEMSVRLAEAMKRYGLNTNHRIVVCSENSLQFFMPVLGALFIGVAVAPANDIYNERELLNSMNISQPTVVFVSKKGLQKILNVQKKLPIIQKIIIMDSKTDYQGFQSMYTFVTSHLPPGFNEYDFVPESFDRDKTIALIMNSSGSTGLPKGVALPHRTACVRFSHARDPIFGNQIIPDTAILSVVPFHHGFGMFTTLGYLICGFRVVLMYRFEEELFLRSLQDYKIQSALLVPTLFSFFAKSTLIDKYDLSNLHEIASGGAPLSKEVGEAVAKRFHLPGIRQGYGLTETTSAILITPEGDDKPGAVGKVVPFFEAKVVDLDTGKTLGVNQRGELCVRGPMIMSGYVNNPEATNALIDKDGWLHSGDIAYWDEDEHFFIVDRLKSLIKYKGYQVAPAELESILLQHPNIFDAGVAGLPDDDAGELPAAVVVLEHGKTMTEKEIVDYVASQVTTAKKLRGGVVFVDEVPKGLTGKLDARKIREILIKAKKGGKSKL
Summary of the method: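 Purified P. pyralis luciferase (10nM final) with 10uM D-luciferin and 10uM ATP (Km levels) in 50mM Tris acetate pH 7.5, 10mM Mg acetate, 0.01% Tween-20, 0.05% BSA; qHTS 6-point titration, ~60 µM downward; luminescence read.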
Potency means the concentration at half of the fitted maximal effect; tags describe the fitted curve by direction and shape.

| SMILES | Potency |
| --- | --- |
| Cc1cc(C(=O)OCn2nnc3ccccc3c2=O)c(C)n1-c1ccccc1 | inconclusive: 23.9 µM [inhibitor, partial curve] |
| CN1CCN(C(=S)NC(=O)/C=C/c2ccccc2Cl)CC1 | inconclusive: 30.1 µM [inhibitor, single point] |
| N/C(=N\OC(=O)COc1ccc(Br)cc1)c1cccnc1 | inconclusive: 23.9 µM [inhibitor, partial curve, poor fit] |
| CCOc1ccc(C(=O)CCC(=O)N(CC)CC(=O)NCc2ccc(Cl)cc2)cc1 | inactive |
| COc1ccc(NC(=O)CSc2nccn2Cc2ccco2)cc1 | active: 23.9 µM |
| O=C(Nc1ccc(N2CCN(C(=O)c3ccco3)CC2)c(Cl)c1)c1cccnc1 | inactive |
| Cc1ccc(N=Nc2ccc(C)cc2NC(=O)Nc2ccccc2F)cc1 | inconclusive: 16.9 µM [inhibitor, partial curve] |
| O=[N+]([O-])c1ccc2nc(C3CCCCC3)[nH]c2c1 | inconclusive: 37.9 µM [inhibitor, partial curve, poor fit] |
| Nc1nc(Nc2ccccc2)nc(N2CCCC2)c1[N+](=O)[O-] | inconclusive: 23.9 µM [inhibitor, partial curve] |
| Cc1cc(/C=N/NC(=O)c2ccc(CN3CCOCC3)cc2)c(C)n1-c1ccccc1 | active: 6.75 µM |
| CCOC(=O)/C(C#N)=C1/C(=O)N(Cc2ccccc2)c2ccccc21 | inconclusive: 15.1 µM [inhibitor, partial curve] |
| COc1cccc(C(=O)NC2=NCCS2)c1OC | inconclusive: 21.3 µM [inhibitor, partial curve] |
| O=C(O)c1ccc(C(=O)C(=O)c2ccccc2)cc1 | inconclusive: 16.9 µM [inhibitor, partial curve, poor fit] |
| CCOC(=O)C1CCN(c2nc3c(S(=O)(=O)c4ccccc4)nnn3c3ccsc23)CC1 | inactive |
| O=C(Nc1ccncc1)Nc1cccc(C(F)(F)F)c1 | inconclusive: 26.9 µM [inhibitor, partial curve, poor fit] |
| O=C(COC(=O)/C=C/c1ccccc1Cl)NC1CCCCCC1 | inactive |
| Cc1ccccc1C(=O)Nc1ccc(OCc2cc(=O)n3cccc(C)c3n2)cc1 | inactive |
| CCc1noc(C)c1C(=O)Nc1nc(-c2cccs2)cs1 | inconclusive: 37.9 µM [inhibitor, partial curve, poor fit] |
| CCC(NC(=O)c1cc(COc2cncc(Cl)c2)on1)c1ccncc1 (stereo unspecified) | inactive |
| CC1CC(C)CN(C(=O)Nc2ccc(Br)cc2)C1 (stereo unspecified) | inconclusive: 30.1 µM [inhibitor, single point] |
| O=C(COc1ccccc1Cl)Nc1ccc(NC(=O)c2ccco2)cc1 | inactive |
| Cc1cc(C)c(C(=O)COC(=O)c2nn(C)c(=O)c3ccccc23)cc1C | active: 10.7 µM |
| Cc1ccccc1NC(=O)CSc1ccc(-c2ccco2)nn1 | inconclusive: 23.9 µM [inhibitor, partial curve, poor fit] |
| c1ccc(-c2nnc3ccc(N4CCCC4)nn23)cc1 | inactive |

| SMILES | Potency |
| --- | --- |
| Cc1cc(NC(=O)c2ccccc2C)ccc1NC(=O)c1ccccc1Cl | inconclusive: 2.69 µM [inhibitor, full curve] |
| Cc1ccc(NC(=O)Cn2cc(S(=O)(=O)c3ccc(C)cc3)c(=O)c3cc4c(cc32)OCO4)cc1 | inactive |
| CC1c2nc3ccccc3n2C(CC(=O)NC2CC2)C(=O)N1Cc1ccccc1 (stereo unspecified) | inactive |
| O=C(CCS(=O)(=O)c1cc(Br)cc2c1N(C(=O)C1CC1)CC2)NCc1ccc(Cl)cc1 | inactive |
| CCOc1ccc(Nc2oc(-c3ccc(Cl)cc3)nc2C#N)cc1 | inconclusive: 33.8 µM [inhibitor, partial curve, poor fit] |
| CCOc1cccc(CN2CCC(Oc3ccc(C(=O)NCc4ccccn4)cc3)CC2)c1 | inactive |
| O=C(Nc1cc(-c2nc3ccccc3o2)ccc1Cl)c1ccc(N2CCCCC2)c([N+](=O)[O-])c1 | inconclusive: 16.9 µM [inhibitor, partial curve, poor fit] |
| COc1cc(OC)cc(C(=O)Nc2nnc(NC(=S)Nc3ccccc3)s2)c1 | inactive |
| COc1ccc(/C=N/n2cncn2)cc1COc1ccc(NC(C)=O)cc1 | inconclusive: 26.9 µM [inhibitor, partial curve] |
| CCN(CC)S(=O)(=O)c1cccc2cc(C(=O)O)c(O)cc12 | inconclusive: 21.3 µM [inhibitor, partial curve, poor fit] |
| COc1cc(/C=C(\NC(=O)c2ccccc2)C(=O)Nc2nccs2)ccc1OC(C)=O | inactive |
| CC1(C)Cc2c(cnn2-c2ccccc2)C(=O)/C1=N\NC(=O)c1ccccc1 | inconclusive: 26.9 µM [inhibitor, single point] |
| COC(=O)c1c(NC(=O)c2ccccc2F)sc2c1C(C(=O)OC)CC2 (stereo unspecified) | inconclusive: 16.9 µM [inhibitor, single point] |
| Cc1ccc(/C=N/c2sc3c(c2C#N)CCCCC3)o1 | active: 0.169 µM |
| Cc1cccc(C(C)C)c1NC(=O)Cc1ccc(S(=O)(=O)N2CCOCC2)s1 | inactive |
| COc1ccc(-c2nnn(Cc3ccccc3)n2)cc1 | active: 21.3 µM |
| Cc1ccc(S(=O)(=O)/N=C2/C=C(C3C(=O)CC(C)(C)CC3=O)C(=O)c3ccccc32)cc1 | inconclusive: 23.9 µM [inhibitor, single point] |
| CCCc1cc(=O)n(-c2nc3ccccc3s2)[nH]1 | inconclusive: 26.9 µM [inhibitor, partial curve, poor fit] |
| CCc1nnc(SCc2cc(C)ccc2C)c2cc3sc(C)cc3n12 | inactive |
| CC1=NN(c2ccccc2)C(=O)/C1=C\N1CC(C)OC(C)C1 (stereo unspecified) | inconclusive: 37.9 µM [inhibitor, single point] |
| O=c1c2ccc(Cl)cc2nc(-c2ccc([N+](=O)[O-])cc2)n1O | inconclusive: 9.53 µM [inhibitor, partial curve, poor fit] |
| O=C(O)CCc1nnc(SCC(=O)Nc2ccc(Br)cc2)[nH]c1=O | inconclusive: 37.9 µM [inhibitor, single point] |
| COc1cccc2cc(C(=O)NCCc3ccccc3)c(=O)oc12 | active: 10.7 µM |
| CC(C)C(=O)Nc1ccc(Cc2ccc(NC(=O)C(C)C)c(O)c2)cc1O | inconclusive: 23.9 µM [inhibitor, single point] |

| SMILES | Potency |
| --- | --- |
| CN(C(=O)c1cccc(NC(=O)c2ccccc2)c1)C1CCCCC1 | inactive |
| CCCn1c(NCc2cc(C)ccc2O)nc2ccccc21 | inconclusive: 37.9 µM [inhibitor, partial curve, poor fit] |
| CC(CC(=O)N1CCc2ccccc21)c1ccccc1 (stereo unspecified) | inconclusive: 12 µM [inhibitor, partial curve] |
| CN(/N=C/c1cc([N+](=O)[O-])ccc1O)c1ccccc1 | inconclusive: 5.36 µM [inhibitor, full curve] |
| CC(C)c1ccc(OCC(=O)NC(Cc2c[nH]c3ccccc23)C(=O)O)cc1 (stereo unspecified) | inconclusive: 12 µM [inhibitor, partial curve] and inconclusive: 23.9 µM [inhibitor, partial curve] |
| COc1cccc(Cn2cc(/C=N/NC(=O)c3cc(O)cc(O)c3)c3ccccc32)c1 | active: 26.9 µM |
| O=C(O)CN1CCN(Cc2ccccc2Cl)C1=O | inactive |
| CCCCC(=O)OCC(=O)c1[nH]c(C)c(C(=O)OCC)c1C | active: 1.9 µM |
| Cc1cccc(-n2c(=S)[nH]c3sc4c(c3c2=O)CCc2ccccc2-4)c1 | active: 7.57 µM |
| O=C(Nc1cccc(S(=O)(=O)N2CCCC2)c1)c1ccc2ccccc2n1 | inconclusive: 21.3 µM [inhibitor, partial curve, poor fit] |
| O=C(Nc1ccc(-n2ccc(C(F)(F)F)n2)cc1)Nc1cccc(Cl)c1 | active: 10.7 µM |
| COc1ccc(CNC(=O)c2ccc(N3CCCC3)c(NC(=O)NCc3ccc(C)cc3)c2)cc1 | inconclusive: 8.49 µM [inhibitor, partial curve, poor fit] |
| CS(=O)(=O)N1CCc2cc(C(=O)Nc3ccc(Cl)cc3)ccc21 | inconclusive: 26.9 µM [inhibitor, partial curve, poor fit] |
| Cc1cc(CN(C)C(=O)c2ccc3nc(Cc4ccccc4F)oc3c2)on1 | inconclusive: 4.26 µM [inhibitor, single point] |
| Cn1cnnc1Sc1ccc(C(F)(F)F)cc1[N+](=O)[O-] | inactive |
| Cn1c(/N=C/c2ccccc2[N+](=O)[O-])nc2ccccc21 | active: 1.69 µM |
| COC(=O)N/N=C/c1sc(N2CCCCC2)nc1-c1cccs1 | inconclusive: 21.3 µM [inhibitor, partial curve] |
| COc1ccc(/C=N/NC(=O)c2cccc(C(F)(F)F)c2)cc1 | inconclusive: 9.53 µM [inhibitor, partial curve, poor fit] |
| O=C(CSc1nc2ccccc2s1)Nc1cc(C(=O)O)cc(C(=O)O)c1 | inconclusive: 23.9 µM [inhibitor, partial curve] |
| S=C(Nc1cccc2ccccc12)NC1CCCCC1 | active: 19 µM |
| O=C(NC1CC1)c1cccc(Nc2ccc(-c3ccc4c(c3)OCCO4)nn2)c1 | active: 0.601 µM |
| Cc1nnc(NCCc2ccccc2)n(N)c1=O | inconclusive: 9.53 µM [inhibitor, partial curve, poor fit] |
| Cn1c(SCc2ccccc2)nnc1-c1ccco1 | inconclusive: 21.3 µM [inhibitor, partial curve, poor fit] |

From PubChem BioAssay AID588342 (National Center for Advancing Translational Sciences (NCATS), 2011)
